# According to PubChem BioAssay AID1466 (National Center for Advancing Translational Sciences (NCATS), 2008):
# The whole screen tested about 200,000 compounds, of which about 10 (0.005%) were called active. Inconclusive results, whose numbers are uncertain, are shown with a selection of clear calls. The call rests on the fitted dose curve; in most records, active means well fitted inhibition curve with a large enough effect; inconclusive means small, poorly fitted or top-dose-only effect, or effect the other way, or another doubt; inactive means no such curve, though single readings can be large or run the other way. No potency is given beside an inconclusive call; the fits are too rough.
# Target: Lysosomal alpha-glucosidase (Homo sapiens) (UniProt P10253)
# Assay: qHTS Assay for Inhibitors of Human alpha-Glucosidase as a Potential Chaperone Treatment of Pompe Disease;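 on activity change, negative = inhibition: plate controls were uninhibited enzyme wells for no effect and no-enzyme background for full effect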
# Conditions: purified human GAA, 4-MU-alpha-glucoside fluorescence; activity change, negative = inhibition: at 76.9 µM (top of the series) unless noted
# In short: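 AC50 values come from Hill fits of compound titrations (up to 77 uM) against 4 nM human enzyme. Substrate 4-methylumbelliferyl-alpha-D-pyranoside at 400 uM, pH 5.0 citrate buffer, 20 min room temperature; fluorescence Ex 365/Em 440 after alkaline stop.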
# Potency means the concentration at half of the fitted maximal effect; tags describe the fitted curve by direction and shape.
Compound,Potency,"activity change, negative = inhibition"
CSc1nnc(-c2cc3ccccc3cc2O)n1C,"inconclusive [activator, partial curve]",
COc1ccccc1/C=C1\Cc2ccccc2C1=O,"inconclusive [inhibitor, full curve, poor fit]",
CSc1ccc(S(=O)(=O)N2CCN(Cc3ccc4c(c3)OCO4)CC2)cc1,inactive,
O=C(CSc1nnc(Cn2nnc(-c3ccccc3)n2)n1-c1ccccc1)Nc1ccccc1,"inconclusive [inhibitor, full curve]",
C=C(C)c1cccc(C(C)(C)NC(=O)NCC2COCCO2)c1 (configuration not stated),,inconclusive: -17.4% [inhibitor]
CCCn1c(-c2ccc(OC)cc2)nc2nc3ccccc3nc21,"inconclusive [activator, partial curve]",
COc1ccc(Cl)cc1NC(=S)N(CCCN1CCOCC1)Cc1cn(C)c2ccccc12,inactive,
Cc1ccc(NC(=O)COC(=O)CCc2ccc(S(=O)(=O)N3CCOCC3)cc2)cc1C,"inconclusive [inhibitor, partial curve]",
O=C1c2oc3ccc(Br)cc3c(=O)c2C(c2cccc(F)c2)N1CCO (configuration not stated),,inconclusive: -18.2% [inhibitor]
COc1ccc(S(=O)(=O)N(C)Cc2cccs2)cc1Br,"inconclusive [inhibitor, full curve, poor fit]",
CC1(C)C(C=C(Cl)Cl)C1C(=O)N(Cc1ccc(Cl)cc1)C1CCS(=O)(=O)C1 (configuration not stated),"inconclusive [inhibitor, single point]",
CCOC(=O)c1sc(N)c(C(=O)Nc2ccccc2OC)c1C,"inconclusive [inhibitor, single point]",
O=C(CN1CCCCC1)N1CCCc2ccccc21,inactive,
CSc1nc2nc3c(cc2c(=O)n1-c1ccccc1)COC(C)(C)C3,,inconclusive: 15.5% [activator]
Nc1nc(NCCCN2CCOCC2)nc(Nc2ccccc2)c1[N+](=O)[O-],,inconclusive: -17% [inhibitor]
O=c1[nH]c(S)c(/C=C2\C=Nc3ccccc32)s1,,inconclusive: -15.3% [inhibitor]
O=S(=O)(c1ccc(Cl)c(F)c1)N1CCC(c2nc(-c3ccncc3)no2)CC1,"inconclusive [inhibitor, partial curve, poor fit]",
CCN(CC)S(=O)(=O)c1cccc(C(=O)NC(C(=O)NC2=NCCS2)C(C)C)c1 (configuration not stated),"inconclusive [inhibitor, single point]",
O=S(=O)(c1ccccc1)N1CCC(=NO)CC1,"inconclusive [inhibitor, partial curve]",
O=C(COC(=O)/C=C/c1ccco1)Nc1ncc(C(F)(F)F)cc1Cl,"inconclusive [inhibitor, single point]",
CC(Sc1ccccc1)C(=O)N/N=C/c1cccnc1 (configuration not stated),"inconclusive [inhibitor, partial curve]",
COc1ccc(NC(=O)N2CCN(c3nc(-c4cccc(OC)c4)cs3)CC2)cc1,"inconclusive [inhibitor, full curve]",
Cc1nnc(N/N=C\c2ccc(-c3cccc(C(=O)O)c3)o2)n1N,"inconclusive [inhibitor, single point]",

Compound,Potency,"activity change, negative = inhibition"
COc1ccc(C)cc1N(CC(=O)N1CCc2ccccc2C1)S(C)(=O)=O,,inconclusive: 14.6% [activator]
COc1ccc(C2CC(=O)c3sc(NC(C)=O)nc3C2)cc1 (configuration not stated),"inconclusive [inhibitor, single point]",
Cc1cc(=O)oc2cc3c(cc12)OCCO3,"inconclusive [activator, partial curve]",
CC(=O)Nc1ccc(S(=O)(=O)N(Cc2ccccc2)c2ccccc2F)cc1,"inconclusive [inhibitor, single point]",
COc1ccc(OC)c(-c2c3c([nH]c(=S)c2C#N)CCCC3)c1,"inconclusive [inhibitor, partial curve, poor fit]",
CC1(C2CC(C(F)(F)F)n3nc(C(=O)O)cc3N2)CC1 (configuration not stated),,inconclusive: 16.5% [activator]
CCN(CCCNC(=O)CCCCn1c(=O)[nH]c2ccccc2c1=O)c1ccccc1,"inconclusive [inhibitor, single point]",
O=C(c1cccs1)c1coc2ccc(O)cc12,,inconclusive: -16.6% [inhibitor]
COc1cccc(N(C(=O)Cn2nnc(-c3ccc(F)cc3)n2)C(C(=O)NCC2CCCO2)c2ccc(Cl)cc2)c1 (configuration not stated),"inconclusive [activator, full curve, poor fit]",
COC(=O)C1CCCN1S(=O)(=O)c1ccc2ccccc2c1 (configuration not stated),"inconclusive [inhibitor, partial curve]",
COc1cc2cc(CN(CCN3CCCC3)C(=O)Nc3ccccc3Cl)c(=O)[nH]c2cc1OC,"inconclusive [activator, single point]",
CCOC(=O)N1CCN(C(=O)c2ccc(N(Cc3ccccc3)S(C)(=O)=O)cc2)CC1,"inconclusive [inhibitor, partial curve]",
O=C1/C(=C/c2cccnc2)SC(=S)N1C1CCS(=O)(=O)C1 (configuration not stated),inactive,
CC(=O)N1CCN(S(=O)(=O)c2cccc(C(=O)Nc3nc4ccccc4[nH]3)c2)CC1,"inconclusive [inhibitor, partial curve]",
N#C/C(=C/c1ccc(N2CCOCC2)o1)C(=O)Nc1ccccc1,,inconclusive: 4.38% [activator]
CC(C)CNc1c(N)n(CC(C)C)c(=O)[nH]c1=O,"inconclusive [activator, partial curve]",
CCOc1cccc(C(=O)NC(=S)Nc2ccc(N3CCN(CC)CC3)cc2)c1,inactive,
O=C(NCCn1cc(SCc2ccc(F)cc2)c2ccccc21)c1ccccc1F,"inconclusive [inhibitor, single point]",
Cc1cccc(Oc2c([N+](=O)[O-])c(=O)n(C)c3ccccc23)c1,,inconclusive: 2.4% [activator]
S=c1[nH]nc(CCc2nc3ccccc3[nH]2)n1-c1ccccc1,,inconclusive: 15.4% [activator]
CC12CCC(C(=O)NNc3ccccc3)(OC1=O)C2(C)C (configuration not stated),inactive,
CCOC(=O)N1CCN(C(=O)CN(C)S(=O)(=O)c2ccc3c(c2)C(C)(C)C(=O)N3C)CC1,"inconclusive [inhibitor, single point]",
CCOC(=O)C1(CC2CCCCO2)CCN(Cc2cc3ccccc3[nH]2)CC1 (configuration not stated),,inconclusive: 19.5% [activator]

Compound,Potency,"activity change, negative = inhibition"
COc1ccccc1CNC(=O)Cn1cccc1,"inconclusive [inhibitor, partial curve]",
C#CCOCCOCCOCCNc1nc(N2CCOCC2)nc(N2CCN(C(=O)[C@H]([C@@H](C)CC)n3cc(CCCN=C(N)N)nn3)CC2)n1,inactive,
CCOc1cc(/C=C2\N=C3CCCCCN3C2=O)ccc1O,,inconclusive: -18.1% [inhibitor]
O=c1[nH]c(N/N=C/c2ccc(O)cc2)nc2ccccc12,,inconclusive: 15.2% [activator]
CC(C)OCCCNC(=O)c1c(N)n(/N=C/c2cccs2)c2nc3ccccc3nc12,,inconclusive: 16.4% [activator]
c1ccc(SCc2cn3cccnc3n2)nc1,,inconclusive: 16.3% [activator]
O=C(c1cnn2c(C(F)F)cc(-c3ccccc3)nc12)N1CCc2ccccc21,,inconclusive: 7.2% [activator]
COc1ccc(/C=C/C(=O)OCC(=O)NC(=O)NC(C)(C)C)cc1,"inconclusive [inhibitor, single point]",
Cc1cccc(NC(=S)N(CCCN2CCOCC2)C(C)c2cc3ccccc3o2)c1 (configuration not stated),"inconclusive [inhibitor, single point]",
N=C1c2ccccc2CN1NC(=O)c1cccc(S(=O)(=O)N2CCCCC2)c1,"inconclusive [inhibitor, single point]",
CC(C)Cn1c(-c2csc(C(C)C)c2)n[nH]c1=S,"inconclusive [inhibitor, single point]",
COc1cccc(/C=N/N2C(=O)CSC2=S)c1O,"inconclusive [inhibitor, single point]",
CCOC(=O)c1c(-c2ccc(C)cc2C)csc1NC(=O)CSc1nnnn1C,"inconclusive [inhibitor, single point]",
NNC(=O)c1cc2cc3ccccc3nc2s1,inactive,
CCCCn1c(=O)n(C)c(=O)c2c(C(F)(F)F)cc(-c3ccncc3)nc21,,inconclusive: 19.2% [activator]
Nc1c(C(=O)OCC2CCCO2)c2nc3ccccc3nc2n1C1CCCCC1 (configuration not stated),"inconclusive [activator, partial curve]",
O=C(NNC(=O)c1sccc1-n1cccc1)c1cccc(Cl)c1,"inconclusive [inhibitor, single point]",
CN(CC(=O)NC1CC1)S(=O)(=O)c1ccc(F)cc1,,inconclusive: 13.3% [activator]
C=COCCn1c(=N)n(CCC)c2ccccc21,,inconclusive: 15.4% [activator]
COc1ccc(CCN2C(=O)CC(C(N)=O)SC2=Nc2ccccc2)cc1 (configuration not stated),"inconclusive [inhibitor, single point]",
COc1ccc2c(c1)CCc1c(C(=O)Nc3c(C)n(C)n(-c4ccccc4)c3=O)noc1-2,"inconclusive [inhibitor, full curve, poor fit]",
